Source: paper PMC4336329 (PLoS ONE, 2015)
In all, about 310,000 compounds went through this assay and about 14,000 (4.5%) showed an effect of 50% or more. Effects have a minus sign here. The list shows a part of the results.

Biological target: human ether-à-go-go-related gene (hERG) potassium channel (human, UniProt Q12809)
Experiment: primary screen, population patch clamp on CHO cells stably expressing hERG
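Note: peak tail current of the secondary pulse compared with the same well before compound.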

human ether-à-go-go-related gene (hERG) potassium channel, sequence (Q12809 whole entry, looked up): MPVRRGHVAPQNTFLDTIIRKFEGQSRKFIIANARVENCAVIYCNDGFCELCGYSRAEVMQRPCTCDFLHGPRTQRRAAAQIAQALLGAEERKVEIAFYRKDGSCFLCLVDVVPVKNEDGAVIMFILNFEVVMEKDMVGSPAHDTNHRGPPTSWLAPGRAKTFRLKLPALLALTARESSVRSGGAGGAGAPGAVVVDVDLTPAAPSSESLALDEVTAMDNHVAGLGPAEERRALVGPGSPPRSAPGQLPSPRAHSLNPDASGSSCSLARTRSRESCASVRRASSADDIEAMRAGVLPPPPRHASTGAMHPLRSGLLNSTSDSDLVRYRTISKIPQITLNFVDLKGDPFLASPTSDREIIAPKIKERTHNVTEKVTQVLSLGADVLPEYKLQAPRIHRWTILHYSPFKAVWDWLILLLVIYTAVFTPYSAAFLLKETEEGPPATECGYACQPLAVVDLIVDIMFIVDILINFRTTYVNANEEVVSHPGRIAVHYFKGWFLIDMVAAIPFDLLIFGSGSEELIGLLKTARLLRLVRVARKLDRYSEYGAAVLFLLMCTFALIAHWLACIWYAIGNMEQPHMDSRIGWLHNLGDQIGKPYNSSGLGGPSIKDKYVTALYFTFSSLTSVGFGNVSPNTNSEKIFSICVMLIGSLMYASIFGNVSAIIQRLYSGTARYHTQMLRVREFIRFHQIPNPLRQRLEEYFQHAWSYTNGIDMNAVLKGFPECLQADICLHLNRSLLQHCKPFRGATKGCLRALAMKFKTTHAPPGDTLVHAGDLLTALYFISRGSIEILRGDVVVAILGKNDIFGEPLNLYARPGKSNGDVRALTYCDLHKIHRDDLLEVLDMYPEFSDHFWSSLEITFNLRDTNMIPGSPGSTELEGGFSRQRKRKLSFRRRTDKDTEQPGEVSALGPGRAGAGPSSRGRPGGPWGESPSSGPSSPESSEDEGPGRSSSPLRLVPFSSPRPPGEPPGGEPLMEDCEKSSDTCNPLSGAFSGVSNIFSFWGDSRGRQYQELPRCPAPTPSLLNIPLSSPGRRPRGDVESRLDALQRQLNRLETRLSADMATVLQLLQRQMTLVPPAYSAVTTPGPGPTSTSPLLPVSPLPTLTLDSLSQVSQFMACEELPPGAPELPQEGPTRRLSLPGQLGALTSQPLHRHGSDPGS

| SMILES | hERG current change (%, negative = inhibition) at 10uM [%] |
| --- | --- |
| Cc1cc(=O)[nH]c(N=N/C(=N/Nc2ccccc2C)c2ccccc2)n1 | 3.58 |
| CC(C)(C)c1ccc(CSc2nnc(-c3ccccc3NC(=O)c3ccccc3)o2)cc1 | -2.8 |
| O=C(Nc1ccccc1)C1CCCN1/C=C/C(=O)C(F)(F)F (stereo not shown) | -6.34 |
| COc1ccc(C)cc1NC(=O)CCC(=O)Nc1ccc2nc(N3CCN(C)CC3)cc(C)c2c1 | -18.6 |
| O=C1C=C(N2CCOCC2)CO1 | 9.55 |
| CCCCOc1ccc(-c2ncc(N)cn2)cc1 | 16.3 |
| CCn1c(CCCNC(=O)c2ccco2)nc2ccccc21 | 11.6 |
| N#CC1=C(N)SC(N)=C(C#N)C1c1ccc(C(F)(F)F)cc1 | 15.1 |
| CNC(=O)CN(c1cc([N+](=O)[O-])ccc1OC)S(C)(=O)=O | 4.24 |
| CNC(=O)NC(=O)COc1ccc2oc3c(c2c1)CCCC3 | 26.3 |
| COc1ccccc1NC(=O)CSc1nc(C)c2c(c1C#N)CCCC2 | 7.26 |
| Cc1ccccc1OCCn1c(C)nc2ccccc21 | -9.71 |
| O=C(CCNS(=O)(=O)c1ccc(Br)cc1)NC1CCC(O)CC1 (stereo not shown) | 18 |
| O=C(NC1CCN(S(=O)(=O)c2ccccc2)CC1)c1ccc(F)cc1 | -13.3 |
| O=C(NCC1CCCO1)c1ccc2c(=O)n(Cc3ccco3)c(SCC(=O)N3CCCC3)nc2c1 (stereo not shown) | -79.3 |
| CCOC(=O)/C(=N/O)C1=NC(C)(C)Cc2cc(C)c(C)cc21 | 3.67 |
| CCOc1ccc(N2CC(C(=O)NNC(=O)c3ccc(F)cc3)CC2=O)cc1 (stereo not shown) | -25.4 |
| O=C(NCC1CCCO1)c1cnn2c1NC(c1ccccc1)CC2C(F)(F)F (stereo not shown) | 1.68 |
| CC(=O)c1c(C)n(C)c2ccc(OC(=O)c3ccco3)cc12 | -1.35 |
| COc1ccc(N2CCN(C(=O)C3CCN(S(=O)(=O)c4c(C)noc4/C=C/N(C)C)CC3)CC2)cc1 | -53.8 |
| COc1ccc(N2CCCCn3c2nc2c3c(=O)[nH]c(=O)n2C)cc1 | -9.2 |
| N#Cc1c(NC(=O)CN2CCOCC2)oc(-c2ccccc2)c1-c1ccccc1 | -27.3 |

| SMILES | hERG current change (%, negative = inhibition) at 10uM [%] |
| --- | --- |
| Cc1ccc(S(=O)(=O)N2CCC(N3CCCCCC3)CC2)cc1 | -23.2 |
| CCCN(CC(=O)Nc1ccccc1C)C(=O)c1ccc(=O)n(Cc2ccccc2)n1 | -0.41 |
| CS(=O)(=O)N1CCN(c2ccccc2NC(=O)c2cccnc2Cl)CC1 | -3.05 |
| O=S(=O)(NCCc1ccc(Cl)cc1)c1cccs1 | -13.7 |
| Cc1ccc(Oc2ccc(C(=O)NC3CCSC3=O)cn2)cc1 (stereo not shown) | 12 |
| COc1ccccc1NC(=O)C(=O)N/N=C(\C)CC(=O)Nc1ccccc1C(F)(F)F | 1.39 |
| Cc1nc(SCC(=O)O)c2oc3ccccc3c2n1 | 3.47 |
| COc1ccc(Cn2nnc3c(=O)[nH]c(C4CCN(S(=O)(=O)c5ccc(C)cc5)CC4)nc32)cc1 | 11.1 |
| O=C(NC1CCCC1)C(c1ccc(N2CCOCC2)cc1)N(Cc1ccccc1)C(=O)c1ccco1 (stereo not shown) | 2.44 |
| O=C(/C=C/c1ccc(S(=O)(=O)N2CCOCC2)cc1)NCc1ccccc1F | -0.948 |
| N#C/C(=C/c1ccc(Oc2ccc([N+](=O)[O-])cn2)cc1)C(=O)N1CCOCC1 | -13.3 |
| CNC(=S)NCc1ccc2[nH]c3c(c2c1)CCCC3 | -3.58 |
| CC(C)(CCl)C(=O)Nc1ccc(C(F)(F)F)cc1 | 5.42 |
| Cc1ccc(-c2csc3nnc(SCC(=O)Nc4cccc(C)n4)n23)cc1 | -7.84 |
| CC1CN(C(=O)CN2C(=O)NC(C)(c3ccccc3)C2=O)CC(C)O1 (stereo not shown) | 8.79 |
| Cc1ccc(C(=O)O)cc1NC(=O)C1=CSCCO1 | 10.5 |
| CC1(C)Cc2c(c(=S)nc(-c3ccccc3)n2CCOCCO)CO1 | -16.3 |
| COc1ccc(-c2nc3ccccc3c(=O)n2NC(=O)c2cccnc2Cl)cc1OC | 7.24 |
| CCOc1ccc(N2C(=O)CC(Cc3ccccc3OC)C2=O)cc1 (stereo not shown) | 3.64 |
| O=C(CCNC(=O)c1ccc([N+](=O)[O-])cc1)NNC(=O)c1ccncc1 | -13.2 |
| Cc1nn(Cc2ccccc2Cl)c(C)c1NC(=O)CCCn1nc(C)c([N+](=O)[O-])c1C | -30.7 |
| [O-][N+]1=C2CCC/C(=N\O)C2=NC12CCCCC2 | 4.64 |

| SMILES | hERG current change (%, negative = inhibition) at 10uM [%] |
| --- | --- |
| O=C1c2ccccc2C(=O)N1Cc1nc2ccccc2c(=O)n1Cc1ccco1 | 21.3 |
| Cc1cc(C)n(-c2ccc(NC(=O)C3CCN(Cc4ccc(C)o4)CC3)cc2)n1 | -16.6 |
| COC(=O)c1ccc(NC(=O)c2ccc3c(c2)C(=O)N(C)C3=O)cc1 | 8.87 |
| O=C(COc1ccccc1)Nc1ccc(-c2ccc(N3CCOCC3)nn2)cc1 | -9.81 |
| CCOc1ccc(N2CC(C(=O)N3CCc4ccccc43)CC2=O)cc1 (stereo not shown) | -47.6 |
| O=C(NCCc1nc(-c2ccccc2)no1)c1ccco1 | 3.25 |
| Cc1ccc(C23CC4CC(CC(C(=O)OCC(=O)NC5CCS(=O)(=O)C5)(C4)C2)C3)cc1 (stereo not shown) | -4.71 |
| COc1cccc(Nc2cc(C)nc3nc(C)nn23)c1 | -12.8 |
| COc1ccc(C2C(C(C)=O)=C(O)C(=O)N2c2ccccn2)cc1 (stereo not shown) | 15.5 |
| O=C(CCCn1c(=S)[nH]c2cc3c(cc2c1=O)OCO3)N1CCN(C2CCCCC2)CC1 | -36.7 |
| Cc1noc(/C=C/c2ccc(-c3ccccc3Cl)o2)c1[N+](=O)[O-] | 3.66 |
| O=C(C1=NN(c2ccccc2)C2C(=O)N(c3ccc(Cl)cc3)C(=O)C12)c1ccccc1 (stereo not shown) | 4.5 |
| Cc1cc(C)nc(SCC(=O)c2c(N)n(C)c(=O)n(C)c2=O)n1 | 5.44 |
| O=C(/C=C/c1ccccc1Cl)NCCc1ccc(F)cc1 | -1.24 |
| CN(CC(=O)Nc1ccc(Cl)cc1)C(=O)c1cccc(S(=O)(=O)N(C)C)c1 | -8.91 |
| COc1ccc(-n2c(=O)c(CCC(=O)N3CCC(C)CC3)nc3ccccc32)cc1 | -14.1 |
| CCOc1ccccc1N(CC(=O)N1CCOCC1)S(=O)(=O)c1ccccc1 | -4.79 |
| O=C(N/N=C1\CCCc2ccccc21)c1ccc([N+](=O)[O-])cc1 | -15.3 |
| CN(c1ccccc1)S(=O)(=O)c1ccc(NC(=O)c2cccs2)cc1 | 17.9 |
| CCOc1ccc(CN2CCC(C(=O)Nc3cccc(-c4ccn[nH]4)c3)CC2)cc1Cl | -62.3 |
| Cc1ccsc1/C=N/NC(=O)c1cc(-c2ccncc2)nc2ccccc12 | -13.3 |
| COc1ccc(N2CCN(C3CCCN(C(=O)CN4CCCCC4=O)C3)CC2)cc1 (stereo not shown) | 14.2 |

| SMILES | hERG current change (%, negative = inhibition) at 10uM [%] |
| --- | --- |
| N#C/C(=C\c1ccc[nH]1)C(=O)c1ccccc1 | 28.3 |
| CNC(=O)c1cccc2nc3ccccc3nc12 | 9.6 |
| CNC(=S)NNC(=O)c1ccc(N(C)C)cc1 | 0.516 |
| COc1cccc(C(O)C2OC(=O)c3ccccc32)c1OC (stereo not shown) | 10.5 |
| Cc1[nH]c2ccc(C(=O)NCC(C)(C)N3CCOCC3)cc2c1C | -7.68 |
| CCc1ccc(-c2nc(CN3CCC(C(=O)NCc4ccco4)CC3)c(C)o2)cc1 | -66.3 |
| COc1cccc(CN2CCNC(=O)C2CC(=O)NCCCn2ccnc2)c1 (stereo not shown) | 37.2 |
| O=C(COc1ccccc1C(=O)NCc1ccccn1)Nc1ccc(Br)cc1 | 12 |
| CCS(=O)(=O)N1CCC(c2nc(-c3ccc(C(F)(F)F)cc3)no2)CC1 | -6.29 |
| COc1ccc(C(=O)CSc2nnn(-c3cccc(NC(C)=O)c3)n2)cc1 | -4.13 |
| Cc1ccccc1-n1c(Cn2c(=O)sc3ccccc32)nnc1SC(C)C | 1.46 |
| Cn1ncc(Br)c1C(=O)NCc1cccs1 | -4.62 |
| CCN(CC)CCNC(=O)c1cccc(NC(=O)C(=O)c2ccccc2NC(C)=O)c1 | 10.1 |
| CSc1ccccc1C(=O)Nc1ccc(C)c(C)c1 | 5.72 |
| O=C(CCNS(=O)(=O)c1ccc(Br)cc1)N1CCN(c2ccccc2O)CC1 | -36.8 |
| Cc1ccc(S(=O)(=O)N2CCCC(N3CCOCC3)C2)cc1Cl (stereo not shown) | 9.65 |
| COc1ccc(CC(=O)NC(C)c2nnc(SCCC(=O)Nc3ccccc3)n2C)cc1 (stereo not shown) | 23.5 |
| COc1cc(C2CC(=O)N(c3ccc(C)cc3)C(=O)C2)cc(OC)c1OC | 16.6 |
| O=C(NCCCn1ccnc1)c1ccc(C(F)(F)F)cc1 | -10.8 |
| COc1cc(/C=C2/C(=O)NC(=O)N(c3ccccc3)C2=O)ccc1O | -0.0161 |
| CC(C)(CSc1ccccn1)NS(=O)(=O)c1ccc(Cl)cc1 | -15.4 |
| COc1ccc(-c2cc(N)n(S(=O)(=O)Cc3ccccc3)n2)c(OC)c1 | -12.8 |
